From the supplement of paper PMC11417369 come the findings set out here.

± gives the standard deviation of the averaged measurements. The list shows a part of the results.

In the test the test system is PfAP2-EXP AP2 domain (GST-tagged). The test can be described thus: gcPBM binding intensity (ln(normalized median fluorescence intensity)); higher = stronger DNA binding. Summed up:
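Probes on an Agilent 4 × 180k array were primer-extended, double-stranded and 36 bp long, taken from intergenic genomic regions, with negative controls added. GST-tagged P. falciparum DNA-binding domains from E. coli, about 25 μg on average, were applied to the array for 1 h in 1× PBS containing 1% milk, 0.2 mg/ml BSA, 0.5% salmon testes DNA and 0.03% Triton X-100. Binding intensity, obtained after Alexa488 anti-GST antibody detection and a 488 nm scan, is the highest Masliner-normalised natural-log median intensity across replicate spots of either probe orientation.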
As to “TATTTTCAAAAATATACACACACATAAATATATGTA [CACACA_site8160]”, the “gcPBM binding intensity (ln)” value turned out to be 8.18 ± 0.33.
On to “TGTAAATATAAATGTAATAAATATGTAAAAATAAAT [XGTACX_negctrl_site171]”, for which the “gcPBM binding intensity (ln)” value was determined as 8.62 ± 0.32.
Turning to “TAATAATCAAACTATACACACATAAATAGATATATA [CACACA_site6220]”, the “gcPBM binding intensity (ln)” value stood at 8.42 ± 0.33.
As for “ATTTAATTTTCATGATGTACTATAGTTTAATGCACA [XGTACX_site1624]”, the figure is 9.14 ± 0.042.
As for “TTATATGTATTTCTTTGTACACATTTTTATATATAT [XGTACX_site1462]”, the figure is 9.01 ± 0.41.
Turning to “ATTATGCACCAACACACACACACACCCCTAAAAAAT [CACACA_site2568]”, the “gcPBM binding intensity (ln)” value was 9.43 ± 0.16.
“CACTTCAAAAAAATATGTACACATATATATATATAT [XGTACX_site3075]”: the “gcPBM binding intensity (ln)” value came out at 10.1 ± 0.25.
Turning to “TATCATTTTTTTAAAACACACATAATAATATAAATA [CACACA_site2845]”, the “gcPBM binding intensity (ln)” value turned out to be 8.4 ± 0.38.
As for “TAAATTTTATAAATCTGTACATATGAGCAAGAACAT [XGTACX_site7400]”, the figure is 9.25 ± 0.34; as for “TAAAGAGTTACCATTTGTACTTACGCACACATAAAA [XGTACX_site3145]”, 8.45 ± 0.37; as for “TTTTTATGTTATCAAATAAATATAAATATAATTCAT [CACACA_negctrl_site1522]”, 7.93 ± 0.5.
Take “TATATTTGAAATATATGTACTTATAATACAGTTTAA [XGTACX_site8039]”: the “gcPBM binding intensity (ln)” value is 8.25 ± 0.4.
In the case of “CACAGATAAATTAACACACACACACGGATATTTATA [CACACA_site7788]”, the “gcPBM binding intensity (ln)” value was determined as 8.36 ± 0.26.
For the sequence “TTCCTTCAAAATTTAAGTAATAAGATAAAAATATAA [CACACA_negctrl_site1696]”, the “gcPBM binding intensity (ln)” value came out at 8.28 ± 0.47.
“ATGTATACAAATATATGTACGTATGTTCTCTTCTTT [XGTACX_site7865]”: the “gcPBM binding intensity (ln)” value came out at 8.73 ± 0.46.
As for “TTTTTTTTTTATACATGTACTTAAAAGTAGCACCTT [XGTACX_site1855]”, the figure is 8.73 ± 0.37; as for “TGATTCAATTTATGCACACTAAAAATTAATTATATT [CACACA_site271]”, 8.435 ± 0.035.
“GACATTAATTATTTGACACACGACTGGGTGGTGATT [CACACA_site306]”: the “gcPBM binding intensity (ln)” value is 8.44 ± 0.47.
For the sequence “TTTGTAAAAGGTCATACACACATATTCAAAAGAAGT [CACACA_site2947]”, the “gcPBM binding intensity (ln)” value was found to be 8.79 ± 0.35.
Take “ATTATATATACAACAAGTACAAAAGAAAAATATTAT [XGTACX_site2914]”: the “gcPBM binding intensity (ln)” value is 8.82 ± 0.49.
As to “TATAAATACATCCTATACTTCTCTTTTACAGTTTTA [CACACA_negctrl_site1283]”, the “gcPBM binding intensity (ln)” value was found to be 8.71 ± 0.37.
For “TTTTATGTTTTTTTTATAAATATTAAAATTCTATAT [CACACA_negctrl_site1477]”, the “gcPBM binding intensity (ln)” value came to 8.28 ± 0.3.
Under “ATATATATATATAATTGTACATTTTTAACCTTAACA [XGTACX_site7910]” stands 9.97 ± 0.17; under “AATGTTAAAAATGAAAGTACATGGAATTTATTATTT [XGTACX_site4095]”, 8.38 ± 0.23.
